The values that follow come from ChEMBL document CHEMBL1201862, “PubChem BioAssay data set” (2004).

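Grown in 96-well plates, cells were treated for 48 hours with each compound at five concentrations. Insufficient inhibition: endpoint recorded as highest concentration tested. GI50: concentration for 50% inhibition of growth.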 Calls of active or inactive are those of the source. Rule as the data show it: active = GI50 up to about 1.1 µM and inactive = higher.

The subject of the assay is NCI-H322M. The assay can be described thus: DTP human tumour cell line panel, 48 h.
The GI50 is the concentration at which growth is held to half of that of the control. In the case of `Cn1c2ccccc2c2c3c(c4c5ccccc5n(C)c4c21)C(=O)NC3=O`, the GI50 is inactive: > 47.4 µM. Next, `Cc1c2ccnc(-c3ccccc3)c2cc2c1[nH]c1ccccc12`: inactive: 3.38 µM; `O=C(O)c1[nH]c2c([N+](=O)[O-])cc([N+](=O)[O-])cc2c1C(=O)O`: inactive: > 100 µM; `O=C(Nn1c(-c2ccccc2)nc2ccccc2c1=O)c1ccc([N+](=O)[O-])cc1`: inactive: > 100 µM. Next, `O=C1C(=O)N(c2ccc(Cl)cc2Cl)C(=O)C(=O)C1c1nc2ccccc2s1`: inactive: > 100 µM; `COc1ccc(OC)c(N2C(=O)CSC2c2cc(OC)c(OC)c(OC)c2)c1` (stereo unspecified): inactive: > 100 µM.

As for `C[C@]12CCC(=O)O[C@H]1CCCCO2`, the GI50 is inactive: > 100 µM.

With `N#CC1(C#N)C2C=CC(c3coc4cccc2c34)C1(C#N)C#N` (stereo unspecified), the GI50 is inactive: 17.8 µM. To `C/C=C(/C)c1cnc(CC(C)C)c(=O)[nH]1` belongs inactive: > 100 µM.

In the case of `CCOC(=O)/C=C/c1c[nH]c(C(=O)OCC)c1`, the GI50 was inactive: > 100 µM. Regarding `O=C(NCCCNCCNC(=O)c1cc(-c2ccccc2)nc2ccccc12)c1cc(-c2ccccc2)nc2ccccc12`, the GI50 was inactive: 2.35 µM. On to `O=C1CCCSCCCC(=O)CCCSCCC1`, for which the GI50 was inactive: > 100 µM.

`CCOC(=O)/C(=C\c1ccc[nH]1)C(=O)c1ccccc1`: the GI50 is inactive: > 100 µM.

`Cc1ccsc1/C=N/Nc1ccc2ccccc2n1`: the GI50 was inactive: 23.3 µM.

`Cc1cc2c(cc1C)N1C(Cl)=C3CCCCC3=C(C#N)C1N2` (stereo unspecified): the GI50 is inactive: 23.4 µM. On to `Cn1c2c(c3ccccc31)C1CCCCC1C1C(=O)NC(=O)C21` (stereo unspecified), for which the GI50 was inactive: > 100 µM. Turning to `C=CCOC(=O)CCCCCCCCCCCCCCCOC(=O)c1c(CCC[C@@H](C)O[Si](C)(C)C(C)(C)C)nc([O-])[n+]2c1CC[C@H]2CC1(CC/C=C\[C@H](CC)O[Si](C(C)C)(C(C)C)C(C)C)OCCO1`, the GI50 is inactive: 29.2 µM. To `CCC(C)C1=C(OC(C)=O)[N+]2([O-])Oc3ccc(-c4c(OC(C)=O)c(OC(C)=O)c(-c5ccc(OC(C)=O)cc5)c(OC(C)=O)c4OC(C)=O)cc3OC2(C(C)CC)C(=O)N1OC(C)=O` (stereo unspecified) belongs inactive: 16.3 µM; to `COc1cc([C@H]2CC(=O)C[C@@H](c3cc(OC)c(OC)c(OC)c3)C23C(=O)c2ccccc2C3=O)cc(OC)c1OC`, inactive: > 100 µM. To `C(=N\c1ccc(-c2nc3ccccc3s2)cc1)/c1ccco1` belongs inactive: 89.7 µM. To `COc1ccc([C@@H]2OC(=O)C3C2C(=O)O[C@H]3c2ccc(OC)c(OC)c2)cc1OC` (stereo partly specified) belongs inactive: > 100 µM; to `O=C(Nc1ccc(Cl)c(Cl)c1)C(=O)C(C1OC(=O)c2ccccc21)[N+](=O)[O-]` (stereo unspecified), inactive: > 100 µM; to `CC#CC(=O)SCCNC(=O)CC`, inactive: > 10 µM. As to `CCOC(=O)CCC(NC(=O)c1ccc(Oc2nc3ccc(C(F)(F)F)cc3nc2-c2ccccc2)cc1)C(=O)OCC` (stereo unspecified), the GI50 is inactive: 48.3 µM. On to `CC(=O)C(C)(C)CCC(C)(C)C(C)=O`, for which the GI50 was inactive: > 100 µM. As to `O=C(CCc1cc(O)cc(O)c1)NCCc1cc(O)cc(OCc2ccccc2)c1`, the GI50 is inactive: 43.6 µM. Next, `O=c1[nH]nc(-c2ccccc2)n1/N=C\CC/C=N\n1c(-c2ccccc2)n[nH]c1=O`: inactive: > 89.1 µM; `O=C(Nc1ccn(C2CC(O)C(CO)O2)c(=O)n1)c1ccccc1` (stereo unspecified): inactive: > 100 µM; `C=CCN1C(=O)/C(=C/c2cccs2)N=C1SC/C=C/C`: inactive: 68.4 µM.

Take `O=C(NNC(=O)c1ccccc1O)c1cccs1`: the GI50 was inactive: 65.9 µM. Next, `CCOc1ccccc1NC(=O)C(=O)c1c(O)c2ccc(O)cc2oc1=O`: inactive: > 100 µM; `Cn1cnc(N2CCCC2)c(C#N)c1=O`: inactive: > 100 µM. Next, `CCCc1n[nH]c(=O)n1N1C(=O)C=CC1=O`: inactive: > 100 µM; `COC1=CC(=O)c2c(O)c3c(c(O)c2C1=O)C=C(C)OC3O` (stereo unspecified): inactive: 1.41 µM; `OC(c1ccccc1)c1c(-c2ccccc2)[nH]c(-c2ccccc2)c1C(O)c1ccccc1` (stereo unspecified): inactive: 4.65 µM.

For `COc1ccc(C2NC(=O)Nc3c2c(=O)oc2c3ccc3ccccc32)cc1` (stereo unspecified), the GI50 is inactive: 35.9 µM.

As to `CCN(CC)CCSc1c(C(C)=O)c(=O)n(-c2ccccc2)c(=S)n1-c1ccccc1`, the GI50 was inactive: 44.1 µM. Take `Cc1ccc(-n2cc(-c3ccc(Cl)cc3)c3c(NNC(=S)NCc4ccccc4)ncnc32)cc1`: the GI50 was inactive: 5.87 µM.

With `[O-][S+](CC1(O)CCCCC1)c1ccccc1` (stereo unspecified), the GI50 was inactive: > 100 µM. To `CCCCCCn1c(SCC)c2ccccc2c1-c1nc(F)nc(F)n1` belongs inactive: > 100 µM; to `NCCCCNC1(c2cc3ccccc3s2)CCCCC1`, inactive: 4.73 µM; to `CCOC(=O)CN1CCNCCN(CC(=O)OCC)CCNCC1`, inactive: > 100 µM. Next, `CCN1CCC(O)(/C=C/c2ccc(Cl)c(Cl)c2)C(C(=O)/C=C/c2ccc(Cl)c(Cl)c2)C1` (stereo unspecified): active: 1.03 µM. To `O=C1OCCC1(Cc1ccc(Cl)cc1)Cc1ccc(Cl)cc1` belongs inactive: > 100 µM; to `CCOP(=O)(OCC)/C(=C\n1c(=S)[nH]c2cc(C)ccc21)C(=O)OC`, inactive: > 100 µM.

With `CCOC(=O)C1=C(C(=O)OCC)C2c3ccccc3C=CN2C(C(=O)OCC)=C(SC)S1` (stereo unspecified), the GI50 was inactive: > 100 µM.

On to `O=C(O)c1ccccc1/C=N/N=C1NCCCCN1`, for which the GI50 was inactive: > 100 µM. To `CC(C)(C)c1cc(Cc2ccc([N+](C)(C)C)cc2)c(O)c(C(C)(C)C)c1` belongs inactive: 19.3 µM; to `c1ccc2c(c1)ccc1cc3cc(NCCCCNc4ccc5nc6c(ccc7ccccc76)cc5c4)ccc3nc12`, inactive: 1.53 µM; to `O=C1c2cc([N+](=O)[O-])ccc2NC2C(O)c3ccccc3N12` (stereo unspecified), inactive: 46.7 µM. To `CCOC(=O)C(=O)Nc1c(F)cc(F)cc1Br` belongs inactive: > 100 µM; to `COC(=O)C1[C@H](c2cc(OC)c(OC)c(OC)c2)OC(=O)C1(C(=O)OC)C(=O)c1ccc2c(c1)OCO2` (stereo partly specified), inactive: > 100 µM; to `C/C=C1\C[C@@H]2C(OC)Nc3cc(O)c(OC)cc3C(=O)N2C1` (stereo partly specified), active: 0.014 µM.

Turning to `CCOc1ccc(NCc2cc(OC)c(OC)c(OC)c2)cc1`, the GI50 is inactive: 3.52 µM.

As for `O=C1O[C@H]2[C@@H]3OC(=O)c4cc(O)c(O)c(O)c4-c4c(cc(O)c(O)c4O)C(=O)OC[C@H]2O[C@@H](OC(=O)c2cc(O)c(O)c(O)c2)[C@@H]3OC(=O)c2cc(O)c(O)c3c2[C@@H]2C1=CC(=O)C(O)(O)C2(O)O3` (stereo partly specified), the GI50 was inactive: 17.1 µM. Next, `CC[C@](O)(CC(=O)O[C@H]1C(=O)O[C@@H]2C[C@H]3C(C)=CC(=O)[C@@H](O)[C@]3(C)[C@H]3[C@@]4(O)OC[C@]32[C@@H]1[C@@H](C)[C@H]4O)C(C)C`: active: < 0.01 µM.
